Assay results as given in the supplement of paper PMC10185492.
The list shows a part of the results. Values come from read counts of a selection and are noisy.

These substances were tested on SARS-CoV-2 3CLpro (nsp5) (assay: substrate phage enrichment score (protease-eluted vs HEPES control, +1 offset) (ratio); higher = better cleaved substrate). Conditions: selection round: 4; protease elution time: 15 min.
Method: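 Random heptapeptide substrate phage display (M13 pIII fusion, heptapeptide between an N-terminal biotinylated AviTag GLNDIFEAQKIEWHE and pIII; phages immobilised on streptavidin) eluted by cleavage with 50 nM protease in 20 mM HEPES at 37 °C. Selected phages were NGS sequenced, and the enrichment score is (reads in protease sample + 1)/(reads in HEPES blank-selection control + 1).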

Substance | substrate phage enrichment score
PGGSAAA | 0.22
VRPTQLQ | > 74
CTMFRAL | 2.69
GHAAAHH | 0.483
SASPHPG | > 36
ASAGSRV | 1.31
NAHQQWK | 0.132
PEGTLLQ | > 40
PQSRKDR | > 46
LSNAKQG | > 37
RCQMKWP | 5.5
SENGPFG | 1.3
GTSTKLQ | > 49
MHLNGSC | 1.44
TEVTTLH | > 26
ECDVIRF | > 23
SLLRCRV | > 22
EQNLHDG | 0.917
NNEAAHH | 0.692
SKPLSTS | 6.17
ARHTGVQ | 0.136
AVAHHHH | 0.381
NDRALRF | > 29
ARTSELQ | 153
TYSITQS | > 58

Substance | substrate phage enrichment score
VTSGSSG | > 31
SSKATGK | 2.22
ASAILNR | > 24
SANCCGG | 4
KEQTPDH | 8.69
SRRGPNN | 0.969
SNLPPVN | 3.6
ACVPRLH | 3.6
EAPERGL | 13.7
PVFPPEM | > 40
SQGPSTD | 11.7
SESLRQG | 6.67
GLKRGSC | > 81
RLQSGTR | > 48
DRWKCGD | > 36
CIFRVVV | 1.76
VTNSQYP | 0.19
KSNVNSR | 6
HNNESSN | > 22
PVEATCR | > 32
RSHPKTD | 0.292
SIFRVVV | 1.09
EESCSST | 2.59
GPCVLQS | > 25
GICVSKQ | > 22

Substance | substrate phage enrichment score
ATFQGGS | 5.75
SHSVPEL | 0.276
IDPAFIP | 1
EAPATDR | 10.7
SSRGELQ | 10
VSYLQSC | > 56
ERNRLGL | 0.2
RSRTNMG | 4.67
GPTYSAK | 0.3
CKLRQGH | 0.55
CKKSKRI | 0.8
ACKDYQG | 0.381
TSTEPYS | > 23
DHKESQM | 4.75
ACTLSNQ | > 23
SKSGVLR | > 31
HTPGSLN | > 23
VARNCTR | 2.71
VQLQARY | > 32
LRSTGGQ | > 23
WYFQGGS | 0.75
RNSASVS | 2.65
KQETYSH | > 59
VNGYGLW | > 30
RQDAPIT | > 23

Substance | substrate phage enrichment score
EPQASGS | 11.8
LNPHSHA | > 53
ENKTLQD | 0.222
ESNRTLC | 0.256
RYRPAEQ | > 23
PLPLTQH | 11
VRPHNIN | 1.07
SGIVCLQ | > 25
TETTVRS | 0.923
PSTVIPG | 2.38
TCTTPMS | 3.4
STMSQSS | 0.13
GTLRLRQ | > 25
VSAAAHH | 0.474
ENDGSAY | 0.524
RTNLTLD | > 25
DTEAAHH | 1.93
LRTKEKS | 2.56
AEAAHHH | 0.444
EARTNHR | 1.95
QAGTCRT | 6.2
SKSSMKC | > 30
AAAHQHH | 1.07
RCHLQGG | > 124
TTMQSGI | > 39
